In PubChem BioAssay AID1346428 (National Center for Advancing Translational Sciences (NCATS), 2018):
Where “and” joins values, the source holds several entries; their conditions need not be identical. Equal values may be shown once. In all, about 48,000 compounds went through this assay and about 1,200 (2.5%) were called active. Inconclusive results (about 2%) are left out.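 The calls were made as follows: active = activation of at least 60% and not above a set upper limit (about 1 call in 100 departs from these limits); inconclusive = activation of 40% to 60%, or above that upper limit; inactive = activation under 40%.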 The list shows a part of the results.

These molecules were tested against Probable G-protein coupled receptor 32 (Homo sapiens) (UniProt O75388) (assay: qHTS for Agonists of Human Resolvin D1 Receptor DRV1). Settings: CHO-K1 GPR32 beta-arrestin PathHunter luminescence, 90 min; at 76.9 µM; active compounds read high; zero percent set by DMSO-only wells.
Outline: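 Cells are plated overnight, treated with compounds in DMSO for 90 minutes at 37 °C, and developed with PathHunter detection reagent for 1 hour before luminescence is read; signal reflects beta-arrestin binding to GPR32 in engineered CHO-K1 cells.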
Also: 0% is about no effect.

UniProt O75388, sequence (O75388 whole entry, looked up): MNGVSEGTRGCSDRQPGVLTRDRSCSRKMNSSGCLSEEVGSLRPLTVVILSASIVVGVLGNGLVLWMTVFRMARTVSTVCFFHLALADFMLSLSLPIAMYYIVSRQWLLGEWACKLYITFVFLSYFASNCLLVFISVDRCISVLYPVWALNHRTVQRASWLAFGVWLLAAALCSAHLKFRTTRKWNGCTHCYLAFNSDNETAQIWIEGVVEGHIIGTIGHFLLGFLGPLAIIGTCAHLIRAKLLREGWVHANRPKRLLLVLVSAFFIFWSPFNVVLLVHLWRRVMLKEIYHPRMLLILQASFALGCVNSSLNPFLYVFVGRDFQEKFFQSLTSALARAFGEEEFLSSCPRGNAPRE

| SMILES | activation |
| --- | --- |
| O=C(NCC(c1cccnc1)N1CCN(Cc2ccccc2)CC1)C(=O)Nc1cccc(F)c1 (centres undefined) | inactive: -16.4% |
| COc1cc(Nc2c(C#N)cnc3cc(OCCCN4CCN(C)CC4)c(OC)cc23)c(Cl)cc1Cl | inactive: 45.9% |
| Cc1ccc(Cn2c(=O)n(CC3CCC(C(=O)N4CCOCC4)CC3)c(=O)c3sccc32)cc1 (centres undefined) | inactive: 0.432% |
| O=C(CC1Oc2ccc(Cl)cc2NC1=O)NCc1ccccc1 (centres undefined) | inactive: -14.9% |
| CCOC(=O)CC(NC(=O)Cn1nnc(-c2ccc(C(F)(F)F)cc2)n1)c1ccc(C)cc1 (centres undefined) | inactive: 39.1% |
| CCOC(=O)c1cccc(NC(=O)CCn2nc(C)c3c(C)n(-c4ccccc4)nc3c2=O)c1 | inactive: -13.3% |
| COCCCNC(=O)C1CCCN(S(=O)(=O)c2ccc3c(c2)oc(=O)n3C)C1 (centres undefined) | inactive: -28.4% |
| CC1=Nc2cc(C(=O)NC3CCCC3)ccc2Sc2ccc(Br)cc21 | inactive: -9.71% |
| Cc1cc2c(cc1S(=O)(=O)N(C)CC(=O)Nc1cccc(C#N)c1)OCC(=O)N2 | inactive: 9.8% |
| COc1ccccc1C(=O)NCC1(N2CCN(C)CC2)CCCCC1 | inactive: -6.3% |
| Cc1ccc(C)c(NC(=O)N2CCC(N3CCN(Cc4ccc(F)cc4)C(=O)C3=O)CC2)c1 | inactive: -14.2% |
| COc1ccccc1CNC(=O)c1ccc(CN2CC(=O)N3CCCCC3C2=O)cc1 (centres undefined) | inactive: -19.9% |
| CCN(CC)c1ccc(NC(=O)CN2CCN(CC(=O)Nc3ccccc3OC)CC2)cc1 | inactive: -14.4% |
| CCOCCCn1c(SCC(=O)NCCCOC)nc2c(sc3ccccc32)c1=O | inactive: 23.2% |
| Cc1c(NC(=O)c2ccccc2)cc(C(C)C)c(O)c1S(=O)(=O)c1ccc(Cl)cc1 | inactive: -26.6% |
| Fc1ccc(Nc2ncnc3c2nc2n3CCCC2)cc1 | inactive: 4.18% |
| Cc1ccccc1Nc1cc(C(=O)NC2CCCCC2)c2ccccc2n1 | inactive: 1.23% |
| Cn1c(=O)oc2cc(S(=O)(=O)N3CCCC(C(=O)N4CCN(c5ccccc5F)CC4)C3)ccc21 (centres undefined) | inactive: 17.7% |
| CCOC(=O)N1CCc2c(sc3c2c(=O)n(-c2ccc(Cl)cc2)c(=O)n3Cc2cccc(C)c2)C1 | inactive: -4.7% |
| CCOCCCNC(=O)c1c[nH]c2ccc(S(=O)(=O)Nc3cccc(Cl)c3C)cc2c1=O | active: 64.9% |
| Cc1ccc(C)c(NC(=O)C(Cc2ccccc2)N2Cc3ccccc3C2=O)c1 (centres undefined) | inactive: -25.5% |

| SMILES | activation |
| --- | --- |
| Cc1ccc(CCNc2ncnc3onc(C)c23)cc1 | active: 96.8% |
| COc1ccccc1N1CCN(S(=O)(=O)c2cc3[nH]c(=O)c(=O)[nH]c3cc2C)CC1 | inactive: -13.3% |
| O=C(NCCS(=O)(=O)N1CCN(c2ccc(F)cc2)CC1)c1cc(=O)c2ccccc2o1 | inactive: -14.3% |
| CCOc1ccc(CNC(=O)CCC(=O)N2CCSc3ccccc32)cc1 | inactive: -8.53% |
| Cc1ccc2occ(CC(=O)N(Cc3ccc(N(C)C)cc3)C3CCS(=O)(=O)C3)c2c1 (centres undefined) | inactive: -8.71% |
| CN(C)c1ccc(CNC(=O)c2ccc(NC(=O)c3nsc4ccccc34)cc2)cc1 | inactive: -15.7% |
| COc1cccc(Cc2nc3ccccc3nc2SCC(=O)Nc2ccccc2F)c1 | inactive: 2.55% |
| O=C(Cn1c(=O)n(-c2ccccc2)c(=O)c2c3c(sc21)CCCC3)Nc1cccc(F)c1 | inactive: -18% |
| CCC1(c2ccccc2)C(=O)NCNC1=O | inactive: -12.6% and inactive: -2% |
| Cc1c(C(=O)NCc2ccccc2Cl)cccc1-n1cnc2cccnc21 | inactive: 3.7% |
| Cc1cccc(CNC(=O)c2ccc3nc(-c4ccccc4)c(-c4ccccc4)nc3c2)c1 | inactive: -5.06% |
| CCC12CN3CC(C)(CN(C1)C3c1c(C)n(C)c3ccccc13)C2=O (centres undefined) | inactive: -6.75% |
| Cc1cccc(NC(=O)Cn2c(=O)n(CCc3ccccc3)c(=O)c3sc4ccccc4c32)c1 | inactive: -6.04% |
| CC(C)C1N=C2c3ccccc3N=C(SCC(=O)NCc3ccc(F)cc3)N2C1=O (centres undefined) | inactive: -5.55% |
| CCOC(=O)Cn1c(=O)n(C2CCCCC2)c2nc(-c3ccccc3Cl)nc(C(N)=O)c21 | inactive: -21% |
| O=C(CSc1nc2c([nH]c3ccccc32)c(=O)n1-c1ccc(F)cc1)N1CCCc2ccccc21 | inactive: -11.1% |
| Cc1cccc(C)c1OCc1nc2c3cnn(-c4ccccc4Br)c3ncn2n1 | inactive: -4.73% |
| COc1cc(NC(=O)c2cc(C3CC3)nc3c2c(C)nn3-c2ccc(C)cc2)cc(OC)c1 | inactive: -15.4% |
| Nc1c(-c2nc(-c3ccc(Cl)cc3)no2)nnn1-c1ccc(C(F)(F)F)c(Cl)c1 | inactive: -1.17% |
| O=C(NC1CCCCC1)c1cc(Nc2ccccc2)nc2ccccc12 | inactive: 3.13% |
| COC(=O)c1ccc(NC(=O)CCNS(=O)(=O)c2cccc3nsnc23)cc1 | inactive: 1.92% |

| SMILES | activation |
| --- | --- |
| COc1ccc(-c2c(C)nn3c(-c4ccccc4)cc(-c4ccccc4)nc23)cc1OC | inactive: -12% |
| COc1ccc(CCN2C(=O)c3[nH]nc(-c4ccccc4O)c3C2c2ccc(O)c(OC)c2)cc1 (centres undefined) | inactive: -0.509% |
| CCOC(=O)CC(NC(=O)c1cc2c(=O)n3cccc(C)c3nc2s1)c1ccc(OCC(C)C)c(OC)c1 (centres undefined) | inactive: -2.32% |
| CCC(CC)C(=O)Nc1nnc2n1CCS2 | inactive: -1.46% |
| CC(=O)N[C@H](C(=O)O)C(C)(C)SN=O | inactive: -1.72% |
| Cc1ccc(S(=O)(=O)N2CCCc3cc(NC(=O)c4ccccc4Cl)ccc32)cc1 | inactive: -9.23% |
| CCN(CC)S(=O)(=O)c1ccc2c(c1)N(CC(=O)Nc1ccc(F)cc1)C(=O)CO2 | inactive: -32.9% |
| COc1ccc(CCNC(=O)CCCCCn2c(SCC(N)=O)nc3cc4c(cc3c2=O)OCO4)cc1OC | inactive: -3.85% |
| Cc1ccc(C)c(N(C)C(=O)C2CCN(c3ncnc4c3nc3n4CCCCC3)CC2)c1 | inactive: -6.61% |
| COc1ccc(NC(=O)N(Cc2nnc3n2CCCCC3)c2ccc(OC)c(Cl)c2)cc1 | inactive: 17.3% |
| O=C(Nc1c(C(=O)c2ccc(F)cc2)oc2ccccc12)c1cc(-c2ccccc2)on1 | inactive: 8.5% |
| Cc1ccc(CNCc2c(C(=O)O)c(C)n(Cc3ccc(C)cc3)c2C)cc1 | inactive: 5.01% |
| Cn1cnc(S(=O)(=O)N2CCCC(C(=O)Nc3cccc(C#N)c3)C2)c1 (centres undefined) | inactive: -9.45% |
| CCN(CC)S(=O)(=O)c1nnc(NC(=O)COc2cccc(C)c2)s1 | inactive: 17.7% |
| COCCNC(=O)CSc1nc2ccccc2nc1Cc1ccc(C)cc1 | inactive: -3.5% |
| COc1cccc(N2CCN(c3ccc4nnc(CCC(=O)O)n4n3)CC2)c1 | inactive: 9.01% |
| CCOc1ccc(CNC(=O)c2ccc3nc(CC)c(CC)nc3c2)cc1OC | inactive: -0.894% |
| CCc1ccc(S(=O)(=O)c2c(C(=O)c3ccc(C)c(C)c3)cnc3ccccc23)cc1 | inactive: -20.7% |
| COc1ccc(-c2nc3sc(CCNC(=O)C(C)(C)C)c(C)n3n2)cc1 | inactive: 1.4% |
| CNC(=O)C1CCCN(c2nnc(C)c3c(C)n(-c4ccccc4)nc23)C1 (centres undefined) | inactive: 2.5% |
| CCOCCCNC(=O)c1ccc(-c2nc(CS(=O)(=O)c3ccccc3)c(C)o2)cc1 | inactive: -4.6% |

| SMILES | activation |
| --- | --- |
| O=C(O)CCc1ccc(-c2ccc(Br)cc2)n1-c1ccccc1O | inactive: -13.7% |
| CCOC(=O)C1CCN(c2cc3c(cc2NC(=O)c2ccccc2Cl)n(C)c(=O)n3C)CC1 | inactive: -32.5% |
| CCOc1ccc2nc(N3CCCC(C(=O)NCCc4ccc(OC)cc4OC)C3)sc2c1 (centres undefined) | inactive: -2.16% |
| CCOc1ccc(N2CC(c3nc4ccccc4n3CCOc3ccc(OC)cc3)CC2=O)cc1 (centres undefined) | inactive: -9.22% |
| CC(C)Cc1nn2cc(-c3cccc(Br)c3)nc2s1 | inactive: -19.7% |
| CCCCN(CC)CCNC(=O)Cn1cnc2sc(C)c(S(=O)(=O)N3CCN(c4ccccc4OC)CC3)c2c1=O | inactive: 6.13% |
| CCOc1cccc2sc(N(Cc3cccnc3)C(C)=O)nc12 | inactive: -8.17% |
| Cc1cc2nc(-c3ccc(NC(=O)c4ccc(OCC(C)C)cc4)cc3)oc2cc1C | inactive: -12.2% |
| O=C(Nc1ccc(F)c(Cl)c1)c1cc(S(=O)(=O)NCc2ccc3c(c2)OCO3)ccc1F | inactive: -11.1% |
| O=C(NCCc1ccccc1)c1ccc(CSc2nc3cccnc3n2Cc2ccccc2)cc1 | inactive: -0.928% |
| CC(NC(=O)CCc1cn(Cc2ccccc2Cl)c2ccccc12)c1ccccc1 (centres undefined) | inactive: -31.7% |
| Cc1c(NC(=O)Nc2cccc(C(F)(F)F)c2)sc2nc3n(c(=O)c12)CCC(C)CC3 (centres undefined) | inactive: 6.82% |
| COc1ccc(/C=C/c2nc(C#N)c(N3CCC(C(N)=O)CC3)o2)cc1OC | inactive: -8.77% |
| Cc1ccc(-c2nc(CS(=O)(=O)CC(=O)NC(C)CCc3ccccc3)c(C)o2)cc1 (centres undefined) | inactive: 4.41% |
| CC(C)CN(c1ccccc1)S(=O)(=O)c1nnc(NC(=O)C2CCCCC2)s1 | inactive: -20.9% |
| O=C(NCCO)C(=O)NCC(c1ccc2c(c1)OCO2)N1CCOCC1 (centres undefined) | inactive: -5.56% |
| CN1CC(O)C(O)C(O)C1CO (centres undefined) | inactive: 2.08% |
| CCOC(=O)c1nnc2c(-c3ccc(Cl)cc3)c(C)nn2c1N | inactive: -8.05% |
| CCc1ccccc1NC(=O)Cn1nnc(C(=O)NCc2ccco2)c1N | inactive: -4.54% |
| O=C(CCS(=O)(=O)c1ccccc1)N(Cc1cccnc1)c1nc2c(F)cccc2s1 | inactive: -0.24% |
| COc1ccc(C(CC(=O)Nc2ccccn2)N2Cc3ccccc3C2=O)cc1OC (centres undefined) | inactive: -7.78% |
